Data: patent US20220211805A1 (ACCELERON PHARMA, published 2022)

B1: hTβRII-hFc (Fc fusion)
chain: GATIPPHVQKSDVEMEAQKDEIICPSCNRTAHPLRHINNDMIVTDNNGAVKFPQLCKFCDVRFSTCDNQKSCMSNCSITSICEKPQEVCVAVWRKNDENITLETVCHDPKLPYHDFILEDAASPKCIMKEKKKPGETFFMCSCSSDECNDNIIFSEEYNTSNPDTG[human IgG1 Fc and a few adjoining residues not listed]
B2: hTβRII extended hinge-hFc (Fc fusion)
chain: GATIPPHVQKSDVEMEAQKDEIICPSCNRTAHPLRHINNDMIVTDNNGAVKFPQLCKFCDVRFSTCDNQKSCMSNCSITSICEKPQEVCVAVWRKNDENITLETVCHDPKLPYHDFILEDAASPKCIMKEKKKPGETFFMCSCSSDECNDNIIFSEEYNTSNPDTGGG[human IgG1 Fc not listed]
B3: hTβRII (G4S)4-hFc (Fc fusion)
chain: GATIPPHVQKSDVEMEAQKDEIICPSCNRTAHPLRHINNDMIVTDNNGAVKFPQLCKFCDVRFSTCDNQKSCMSNCSITSICEKPQEVCVAVWRKNDENITLETVCHDPKLPYHDFILEDAASPKCIMKEKKKPGETFFMCSCSSDECNDNIIFSEEYNTSNPDTGGGGSGGGGSGGGGSGGG[human IgG1 Fc and a few adjoining residues not listed]
B4: hTβRII (G4S)2-hFc (Fc fusion)
chain: GATIPPHVQKSDVEMEAQKDEIICPSCNRTAHPLRHINNDMIVTDNNGAVKFPQLCKFCDVRFSTCDNQKSCMSNCSITSICEKPQEVCVAVWRKNDENITLETVCHDPKLPYHDFILEDAASPKCIMKEKKKPGETFFMCSCSSDECNDNIIFSEEYNTSNPDTGGGGSGGG[human IgG1 Fc and a few adjoining residues not listed]
B5: hTβRII (G4S)3-hFc (Fc fusion)
chain: GATIPPHVQKSDVEMEAQKDEIICPSCNRTAHPLRHINNDMIVTDNNGAVKFPQLCKFCDVRFSTCDNQKSCMSNCSITSICEKPQEVCVAVWRKNDENITLETVCHDPKLPYHDFILEDAASPKCIMKEKKKPGETFFMCSCSSDECNDNIIFSEEYNTSNPDTGGGGSGGGGSGGG[human IgG1 Fc and a few adjoining residues not listed]
B6: hTβRII (G4S)6-hFc (Fc fusion)
chain: GATIPPHVQKSDVEMEAQKDEIICPSCNRTAHPLRHINNDMIVTDNNGAVKFPQLCKFCDVRFSTCDNQKSCMSNCSITSICEKPQEVCVAVWRKNDENITLETVCHDPKLPYHDFILEDAASPKCIMKEKKKPGETFFMCSCSSDECNDNIIFSEEYNTSNPDTGGGGSGGGGSGGGGSGGGGSGGGGSGGG[human IgG1 Fc and a few adjoining residues not listed]
B7: hTβRII (G4S)5-hFc (Fc fusion)
chain: GATIPPHVQKSDVEMEAQKDEIICPSCNRTAHPLRHINNDMIVTDNNGAVKFPQLCKFCDVRFSTCDNQKSCMSNCSITSICEKPQEVCVAVWRKNDENITLETVCHDPKLPYHDFILEDAASPKCIMKEKKKPGETFFMCSCSSDECNDNIIFSEEYNTSNPDTGGGGSGGGGSGGGGSGGGGSGGG[human IgG1 Fc and a few adjoining residues not listed]

molecular target: T1, human TGFβ1 (human, UniProt P01137 in part); experiment: cell-based or functional assay

In order of rising “IC50, inhibition of TGFβ1 in the A549 pGL3(CAGA)12 luciferase reporter gene assay” value:
1. B3  0.07 nM
2. B5  0.22 nM
3. B4  1.12 nM
4. B2  5.67 nM
5. B1  7.69 nM

molecular target: T1, human TGFβ1; experiment: cell-based or functional assay; remark: another data set of the same source
T1 sequence (P01137 279-390 limits assumed): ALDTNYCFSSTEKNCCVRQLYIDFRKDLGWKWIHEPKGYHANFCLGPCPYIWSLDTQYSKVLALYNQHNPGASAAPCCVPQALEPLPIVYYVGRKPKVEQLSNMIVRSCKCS

In order of falling “IC50, inhibition of TGFβ1 in the A549 pGL3(CAGA)12 luciferase reporter gene assay” value:
1. B7  0.03 nM
2. B6  0.02 nM
